This is an account of results in the supplement of paper PMC11417369.

This is one part of the list.

For this experiment, the system named is PfSIP2 AP2 domain 1 (GST-tagged). Put plainly: gcPBM binding intensity (ln(normalized median fluorescence intensity)); higher = stronger DNA binding. The procedure, abridged: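 Binding intensity is the highest Masliner-normalised natural-log median intensity over replicate spots in either probe orientation. To obtain it, GST-tagged P. falciparum DNA-binding domains made in E. coli were incubated for 1 h on an Agilent 4 × 180k array of primer-extended double-stranded 36-bp intergenic genomic probes plus negative controls. Detection used Alexa488 anti-GST antibody with scanning at 488 nm.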
In the case of “TTTTCTGTATATTGTGTGCACACAATTAACAAAAAA [GTGCAC_site9817]”, the “gcPBM binding intensity (ln)” value was 9.05.
The same measure for “AAAAAAAAAAAAAATGCACACAATGGCTAGCTGTAC [CACACA_site2273]”: 7.58; for “TGGAGGTCAGTTCACAGTACCCAGGAAATCTACGGA [XGTACX_site1995]”: 6.56.
Next, “CCATAGATATTTTATACACACATATAACATATTAAT [CACACA_site6312]”: 7.01; “ATATTGACAAATATTACACACATATATAAATATGTA [CACACA_site7835]”: 6.92; “ATTTATTTTAATATATGTACATATATTTTTTTATTA [XGTACX_site3389]”: 7.02.
Next, “ATATAATATTACACAAGTACAAAAATTAATACTAAA [XGTACX_site482]”: 6.97.
As for “CGTTATTATCCACATACACACAGGAATAAAAAATTA [CACACA_site2883]”, the “gcPBM binding intensity (ln)” value stood at 7.4.
On to “TAGTAATATATATTTTGTACATAAAATAATATATAA [XGTACX_site7971]”, for which the “gcPBM binding intensity (ln)” value turned out to be 7.
The same measure for “ATTTGAAATGCATGAACACACACAGCTATAAATGCA [CACACA_site8229]”: 6.99; for “TATATATGTTAAAACGTGCACATATATATATATATA [GTGCAC_site9589]”: 9.59.
Next, “ATAAAATATAAAAAAAGTACAAAAAAAAAAAAAAAA [XGTACX_site6657]”: 7.19; “ATATTATATAAATATACACACATTGTTTTATAGCAT [CACACA_site2386]”: 7.05.
The same measure for “AAAAAAAAATACATATGTACATATACATATATATAT [XGTACX_site2975]”: 8.95; for “ATATATTTAATTTATGGTACACATAATTTTTTTAGA [XGTACX_site848]”: 7.11.
As for “TTAAAAAAAAGACACACACACATACACATATTTATA [CACACA_site7535]”, the “gcPBM binding intensity (ln)” value amounted to 7.15.
Next, “TATATATATATATATACACACATATATATAAATATA [CACACA_site2035]”: 9.26.
The same measure for “CACAAAAGTAAGCACGCACACACAACCTGAAATAAA [CACACA_site166]”: 7.13; for “TTAGTCATATATATATGTACACACATATATATATTT [XGTACX_site2948]”: 7.04.
Next, “AAAAGAAAATAAGAAACACACAAAAATATGTAAAAA [CACACA_site7694]”: 6.64.
Regarding “ATTTTTATATAATGAACACACATATTATATCATTTA [CACACA_site1572]”, the “gcPBM binding intensity (ln)” value was 7.16.
The same measure for “AAAATCCACATTTTAGTACACACTTAAAAAATTATT [CACACA_site2955]”: 7.17.
On to “GAACATACTCAAATAGCACACACATAAATAAAAATG [CACACA_site9283]”, for which the “gcPBM binding intensity (ln)” value worked out at 7.21.
The same measure for “TTATATATATATATATGTACGAAAAAGAAAAAAAAG [XGTACX_site6761]”: 7.57.
In the case of “TATATATATATAATATGTACATATAATCAACATTTT [XGTACX_site3915]”, the “gcPBM binding intensity (ln)” value worked out at 8.68.
Next, “ATATTATTTTAAAAAAGTACATTTTTAAGAATTCTT [XGTACX_site6630]”: 7.18; “AACATATAAATAAACTGTACATATATATATATATAT [XGTACX_site1056]”: 9.34.
Turning to “AATATTACGTGTTTGGTATTTTTCGATGTTGGCAGG [XGTACX_negctrl_site59]”, the “gcPBM binding intensity (ln)” value was 7.15.
Next, “TATCATTATGTAGAAACACACATAAGCTTCGGTTCA [CACACA_site2766]”: 6.72.
On to “GGGGAAAAAAAAAAAGGAAAAAGAAAAAAAAAAAAA [GTGCAC_negctrl_site489]”, for which the “gcPBM binding intensity (ln)” value came to 7.
The same measure for “ATAAAATTTATATAAGCACACAAATATATATTTATA [CACACA_site9083]”: 6.95; for “AATTGCATAATATATTCACACATTTTTAAGTGATAC [CACACA_site5679]”: 6.85.
The same measure for “GTAAAGGCTATATATGTGCACATTTTTTTTTTTTTT [GTGCAC_site9925]”: 8.47.
Regarding “TTATGGTTATACATATGTACATATATATATATATAT [XGTACX_site1494]”, the “gcPBM binding intensity (ln)” value worked out at 9.68.
Next, “GTATATATATATATATGTACATATATGTAGATATAT [XGTACX_site5431]”: 7.38; “ATATGTACGCAAGGTGCACACTGGTGCATTAAAAAA [CACACA_site1801]”: 12.3; “TTTTATTTTTTCTCACGTACAAATATATAATTTTTT [XGTACX_site6952]”: 7.13.
The same measure for “TACATATGGCACATATGTACACACGTATAGATAATA [XGTACX_site4123]”: 7.12; for “ATGAATATAAAATATACACACTTATATATCGAATGA [CACACA_site6240]”: 6.79; for “AATATATCCTATTCGAACAAAAATACATGCACATAT [CACACA_negctrl_site1058]”: 9.28.
Next, “TTGTGGATTTTGTGCGCACACACATGCAAAAAGAAA [CACACA_site1147]”: 9.54.
On to “TCTCAGTAAATTAAATGTACATAAGGGAGGAACTAT [XGTACX_site8045]”, for which the “gcPBM binding intensity (ln)” value was determined as 7.22.
The same measure for “TAAATATATGCATATACACACAACAAAAAAATATAT [CACACA_site2341]”: 7.33; for “CACAGACATATATATACACACTTTTATTTAAATAAC [CACACA_site4962]”: 7.22; for “TTTTTGTATCCTTCTTCTTTTTCCAGACTACATTAT [XGTACX_negctrl_site216]”: 7.22.
Next, “AAAAAAAAAATGTGCACACGCGTACACCCAAAAAAA [CACACA_site5149]”: 9.88; “TATAAAAATAATATTACACACATGTAAAATGGCTGT [CACACA_site5755]”: 6.81.
The same measure for “CATATACTCGGACACACACACACACCGACAAAAAAA [CACACA_site4433]”: 7.48; for “TTTATAGTTTTTAATAGTACACATATTTTTAAGTAT [XGTACX_site5498]”: 7.22.
“TTTTGTGGAGGATGGTGTACGGTATTGTATTATTAC [XGTACX_site1942]”: the “gcPBM binding intensity (ln)” value is 7.3.
Regarding “TATCATAAAATATGTAGTACGTATATATATAAAAAT [XGTACX_site5455]”, the “gcPBM binding intensity (ln)” value stood at 7.37.
With “TAAACAGACATACATACACACATACATACAGACATA [CACACA_site6997]”, the “gcPBM binding intensity (ln)” value worked out at 7.13.
The same measure for “AAAAAAAAAGTATATATATATTTAAGGAATTCTCTC [GTGCAC_negctrl_site454]”: 6.77; for “ATATATATATATTGCACACATATAAATATATATATT [CACACA_site807]”: 9.22; for “AATATATAGCTAAAAACACACAAATATATACTCATA [CACACA_site5904]”: 6.87.
The same measure for “ATACATTTTTTTTTCACACATATATATATATTTAAT [CACACA_site5995]”: 7.43; for “CTCACGTAGCTTGATGCATGCAAACTTGAGTAAAAG [TGCATGCA_site409]”: 7.04.
The same measure for “TTTATAAAATTTATTGCACACAATTATTTTATAATT [CACACA_site2489]”: 6.93.
For “CATTTTTAAAAAAATTGTACAAAACATATATGTGTA [XGTACX_site3396]”, the “gcPBM binding intensity (ln)” value is 6.94.
As for “TATTAAAAGTAAAAAACACACATGGATATATACATA [CACACA_site3959]”, the “gcPBM binding intensity (ln)” value turned out to be 6.84.
Next, “TTCCTTTTGAACTCTCGTACGCGTAGGTGTTATTAT [XGTACX_site6264]”: 7.02; “GTTGTGTAATTCGTAACACACATAAAATATAAATAA [CACACA_site7799]”: 7.01; “AAAAAAAAAAAAAAAAAAAAAAAAATATATATATAT [CACACA_negctrl_site436]”: 8.86.
Regarding “TTACTATATAATATGTGTACACAACATATAATATAT [XGTACX_site1383]”, the “gcPBM binding intensity (ln)” value amounted to 7.17.
Next, “TTTTTTTTTTGATGTTGTACTTATATACTATATAAT [XGTACX_site2778]”: 7.02; “TAAATAAATAAAAAAACACACATATAAATATAAATA [CACACA_site7815]”: 6.86.
Next, “TGTTTCCTATTTTGTATGCACTTTTTGTCATAATTA [GTGCAC_site9921]”: 8.28.
The same measure for “TATGTGTGACAAAATTGTACGGTCTCTTTATTTTGT [XGTACX_site2679]”: 6.95; for “TATACGGACTCTAAGTGTACTTAAAATAATTCAAAC [XGTACX_site3606]”: 7.51; for “ATTTTTATACCTAAGTGTACATGATGTTTTCTTTTT [XGTACX_site973]”: 6.97.
With “TATATTGCCCTTCACACACACACATATATATATATA [CACACA_site2492]”, the “gcPBM binding intensity (ln)” value stood at 9.62.
On to “TAAAAATGTTGACACACACACATAAATATATTTTAT [CACACA_site7227]”, for which the “gcPBM binding intensity (ln)” value came out at 6.98.
The same measure for “TATTATATAATAAAAATTATTATTATTTGTATAAAT [CACACA_negctrl_site195]”: 6.73.
The same measure for “TATATATATATATATATACACACGTATATATATACA [CACACA_site4155]”: 9.4; for “ATATCTTTGCAAAGATGTACTTGTAAAAATATATGA [XGTACX_site768]”: 7.11; for “TAATATCAATATAAAGTACACACTATAGTATGTATT [CACACA_site2280]”: 6.99.
Next, “TAAAAGTAAAGACATGCATGCATTGGTATCTTTTAC [TGCATGCA_site665]”: 6.52; “TATAATAAAACTTTTACACACTTTAAAAAAAAAAAA [CACACA_site6392]”: 6.89.
On to “GACCCACTTTTCTGCACACATAAAAAATATATAAAT [CACACA_site4483]”, for which the “gcPBM binding intensity (ln)” value was 8.57.
The same measure for “TTTATATTTAAATATATATGAGAAAACACAAAATAT [TGCATGCA_negctrl_site211]”: 7.34.
Next, “GCTTCATTTTAAACTTGTACTTATTTTTTGGTAAAT [XGTACX_site8879]”: 7.6.
The same measure for “TAGTTACTTCTTATATAAAATATGTATATAAAAATA [GTGCAC_negctrl_site190]”: 6.95; for “TTGTTTGTTGTAACGTGTACAGATAAAAATAAAGGG [XGTACX_site375]”: 7.73; for “TTCATATTATAGTGCACACAAAAATATATATATGGT [CACACA_site2855]”: 10.7.
“TCTCTCATTTATTTTTGTACTTAATCCAGCACGTTT [XGTACX_site1369]”: the “gcPBM binding intensity (ln)” value was 7.08.
Next, “ACATATTAATTATAAAGTACATATATATATATATAT [XGTACX_site4540]”: 9.76; “AAATTATCTTAATAGGATGTTCAAGGAGAAAGATGA [CACACA_negctrl_site1032]”: 7.14; “TTTATTATAATATGTTGTACAAGACGTTTCAGTATA [XGTACX_site4486]”: 7.15.
